Measurements as given in the supplement of paper PMC4604168 (melanoma cell lines).
This is one part of the list. Single values are uncertain, as repeats are few or missing.

What follows are compounds tested on IST-MEL1 (assay: cell count relative to DMSO control; melanoma cells; higher = more viable cells). Details: library dose: standard library concentration; 72 h.
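Further: cells treated in 1,536-well plates, then fixed and DAPI-stained, with nuclei counted from automated high-throughput microscope images.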

SMILES | cell count [%]
COc1cc([C@@H]2c3cc4c(cc3[C@@H](O[C@@H]3O[C@@H]5CO[C@@H](C)O[C@H]5[C@H](O)[C@H]3O)[C@H]3COC(=O)[C@H]23)OCO4)cc(OC)c1O [etoposide] + NC(=O)Nc1cc(-c2cccc(F)c2)sc1C(=O)N[C@H]1CCCNC1 [AZD7762] (first compound 0.1 µM, partner dose 0.1 µM) | 105
CCN(CC)CCNC(=O)c1c(C)[nH]c(/C=C2\C(=O)Nc3ccc(F)cc32)c1C [sunitinib] + Nc1ccn([C@@H]2O[C@H](CO)[C@@H](O)C2(F)F)c(=O)n1 [gemcitabine] (first compound 2 µM, partner dose 0.002 µM) | 45.6
C[C@]1(O)C[C@@H](c2nc(-c3ccc4ccc(-c5ccccc5)nc4c3)c3c(N)nccn32)C1 + O=C(O)c1ccc2c(c1)nc(Nc1cccc(Cl)c1)c1ccncc12 [CX4945] (first compound 2 µM, partner dose 2 µM) | 70.4
COc1cc([C@@H]2c3cc4c(cc3[C@@H](O[C@@H]3O[C@@H]5CO[C@@H](C)O[C@H]5[C@H](O)[C@H]3O)[C@H]3COC(=O)[C@H]23)OCO4)cc(OC)c1O [etoposide] + CS(=O)(=O)c1ccc(C(=O)Nc2ccc(Cl)c(-c3ccccn3)c2)c(Cl)c1 [vismodegib] (first compound 0.1 µM, partner dose 5 µM) | 87.7
Cn1cnc2c(F)c(Nc3ccc(Br)cc3Cl)c(C(=O)NOCCO)cc21 [selumetinib] + COC(=O)c1sccc1S(=O)(=O)Nc1ccc(Nc2ccccc2)cc1OC [GSK0660] (first compound 0.075 µM, partner dose 5 µM) | 80.4
CCN(CC)CCNC(=O)c1c(C)[nH]c(/C=C2\C(=O)Nc3ccc(F)cc32)c1C [sunitinib] + COc1cc(Nc2ncc(F)c(Nc3ccc4c(n3)NC(=O)C(C)(C)O4)n2)cc(OC)c1OC [Tamatinib] (first compound 2 µM, partner dose 2 µM) | 66.6
Cn1cnc2c(F)c(Nc3ccc(Br)cc3Cl)c(C(=O)NOCCO)cc21 [selumetinib] + CC(C)(C)c1cnc(CSc2cnc(NC(=O)C3CCNCC3)s2)o1 [SNS-032] (first compound 0.075 µM, partner dose 0.05 µM) | 83.7
C[C@]1(O)C[C@@H](c2nc(-c3ccc4ccc(-c5ccccc5)nc4c3)c3c(N)nccn32)C1 + CCN(CC)CCNC(=O)c1c(C)[nH]c(/C=C2\C(=O)Nc3ccc(F)cc32)c1C [sunitinib] (first compound 2 µM, partner dose 2 µM) | 86
COc1cc([C@@H]2c3cc4c(cc3[C@@H](O[C@@H]3O[C@@H]5CO[C@@H](C)O[C@H]5[C@H](O)[C@H]3O)[C@H]3COC(=O)[C@H]23)OCO4)cc(OC)c1O [etoposide] + O=C(Nc1cccc(Cl)c1)Nc1ncc(CCNc2ncnc3ccsc23)s1 [SNS314] (first compound 0.1 µM, partner dose 0.004 µM) | 50.2
CCN(CC)CCNC(=O)c1c(C)[nH]c(/C=C2\C(=O)Nc3ccc(F)cc32)c1C [sunitinib] + CCCS(=O)(=O)Nc1ccc(F)c(C(=O)c2c[nH]c3ncc(Cl)cc23)c1F [PLX4720] (first compound 2 µM, partner dose 0.4 µM) | 90.6
C[C@]1(O)C[C@@H](c2nc(-c3ccc4ccc(-c5ccccc5)nc4c3)c3c(N)nccn32)C1 + Nc1cccc2c1CN(C1CCC(=O)NC1=O)C2=O [lenalidomide] (first compound 2 µM, partner dose 5 µM) | 102
Cn1cnc2c(F)c(Nc3ccc(Br)cc3Cl)c(C(=O)NOCCO)cc21 [selumetinib] + CCc1ccc(CCOc2ccc(CC3SC(=O)NC3=O)cc2)nc1 [pioglitazone] (first compound 0.075 µM, partner dose 10 µM) | 77.1
CCN(CC)CCNC(=O)c1c(C)[nH]c(/C=C2\C(=O)Nc3ccc(F)cc32)c1C [sunitinib] + CCCCCCCCc1ccc(CCC(N)(CO)CO)cc1 [fingolimod] (first compound 2 µM, partner dose 10 µM) | 12
CCN(CC)CCNC(=O)c1c(C)[nH]c(/C=C2\C(=O)Nc3ccc(F)cc32)c1C [sunitinib] + NCC(=O)Nc1ccc(-n2nc(C(F)(F)F)cc2-c2ccc3c(ccc4ccccc43)c2)cc1 [OSU03012] (first compound 2 µM, partner dose 5 µM) | 85.3
